Experimental findings from publication PMC12820563, “FoxP3 forms a head-to-head dimer in vivo and stabilizes its multimerization on adjacent microsatellites” are described below.

Some of the results follow.

This test deals with T1, MBP-FoxP1dN (Mus musculus, UniProt P58462 326-579).
T1 sequence: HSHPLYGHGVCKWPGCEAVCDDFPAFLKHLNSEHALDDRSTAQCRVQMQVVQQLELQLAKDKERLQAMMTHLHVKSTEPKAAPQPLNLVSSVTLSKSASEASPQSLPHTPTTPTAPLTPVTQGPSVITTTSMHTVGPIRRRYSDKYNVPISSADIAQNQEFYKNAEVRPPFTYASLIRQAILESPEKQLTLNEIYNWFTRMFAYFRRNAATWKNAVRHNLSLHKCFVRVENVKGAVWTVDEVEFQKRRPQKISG
As to the kind of experiment: PD-seq (MBP pull-down with sequencing); 20 mM Tris-HCl pH 7.5, 100 mM NaCl, 1.5 mM MgCl2, 0.4 uM protein, 0.1 uM dsDNA library, 30 min, room temperature, amylose pull-down; high values mean tight binding. Particulars: protein: recombinant; tags: His6-MBP; chain copies: 2; dsDNA, one strand shown. A digest of the protocol:
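A degenerate double-stranded DNA library, filled in with Klenow, was added at 0.1 µM to 0.4 µM His6-MBP-tagged mouse FoxP3 or FoxP1 fragment lacking the N-terminus, expressed in E. coli. Incubation lasted 30 min at room temperature in Tris pH 7.5 buffer with NaCl and MgCl2, after which complexes were collected on amylose resin, washed three times, digested with proteinase K to free the DNA, barcoded by PCR and sequenced by Illumina. Binding is the pooled-replicate reads-per-million enrichment of pull-down over input.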
With “GATGATTGTTCTCCCAGCTGATGAATTCAGTCAATCGAGTAAACAAATTTTCCTAATCTTTCTGTTCAAGCGCCATCTAC”, the binding signal was 1.12 RPM ratio (pull-down/input).
The result for “GATGATTGTTCTCCCAGCTGATGAATTGGTAACCTCGAGTAAACAAATTTTCCTAATCTTTCTGTTCAAGCGCCATCTAC” reads 0.912 RPM ratio (pull-down/input).
The result for “GATGATTGTTCTCCCAGCTGATGAATTCACCAGTTCGAGTAAACAAATTTTCCTAATCTTTCTGTTCAAGCGCCATCTAC” reads 0.884 RPM ratio (pull-down/input); that for “GATGATTGTTCTCCCAGCTGATGAATTTATGGGATCGAGTAAACAAATTTTCCTAATCTTTCTGTTCAAGCGCCATCTAC”, 0.919 RPM ratio (pull-down/input).
Take “GATGATTGTTCTCCCAGCTGATGAATTCAACAAATCGAGTAAACAAATTTTCCTAATCTTTCTGTTCAAGCGCCATCTAC”: the binding signal was 1.29 RPM ratio (pull-down/input).
Take “GATGATTGTTCTCCCAGCTGATGAATTTAGCTTTTCGAGTAAACAAATTTTCCTAATCTTTCTGTTCAAGCGCCATCTAC”: the binding signal was 1.06 RPM ratio (pull-down/input).
The result for “GATGATTGTTCTCCCAGCTGATGAATTTGTAACGTCGAGTAAACAAATTTTCCTAATCTTTCTGTTCAAGCGCCATCTAC” reads 1.18 RPM ratio (pull-down/input); that for “GATGATTGTTCTCCCAGCTGATGAATTCTGGTAGTCGAGTAAACAAATTTTCCTAATCTTTCTGTTCAAGCGCCATCTAC”, 0.945 RPM ratio (pull-down/input).
With “GATGATTGTTCTCCCAGCTGATGAATTGAAAATTTCGAGTAAACAAATTTTCCTAATCTTTCTGTTCAAGCGCCATCTAC”, the binding signal was 0.888 RPM ratio (pull-down/input).
With “GATGATTGTTCTCCCAGCTGATGAATTGACTTGGTCGAGTAAACAAATTTTCCTAATCTTTCTGTTCAAGCGCCATCTAC” the figure was 0.938 RPM ratio (pull-down/input); with “GATGATTGTTCTCCCAGCTGATGAATTGGCCCACTCGAGTAAACAAATTTTCCTAATCTTTCTGTTCAAGCGCCATCTAC”, 0.8 RPM ratio (pull-down/input); with “GATGATTGTTCTCCCAGCTGATGAATTTCTTGCATCGAGTAAACAAATTTTCCTAATCTTTCTGTTCAAGCGCCATCTAC”, 1.27 RPM ratio (pull-down/input).
The result for “GATGATTGTTCTCCCAGCTGATGAATTGGAGTTTTCGAGTAAACAAATTTTCCTAATCTTTCTGTTCAAGCGCCATCTAC” reads 1.1 RPM ratio (pull-down/input); that for “GATGATTGTTCTCCCAGCTGATGAATTCAGCCAGTCGAGTAAACAAATTTTCCTAATCTTTCTGTTCAAGCGCCATCTAC”, 0.768 RPM ratio (pull-down/input).
With “GATGATTGTTCTCCCAGCTGATGAATTGTGCTAATCGAGTAAACAAATTTTCCTAATCTTTCTGTTCAAGCGCCATCTAC” the figure was 1.16 RPM ratio (pull-down/input); with “GATGATTGTTCTCCCAGCTGATGAATTACCTCTCTCGAGTAAACAAATTTTCCTAATCTTTCTGTTCAAGCGCCATCTAC”, 0.905 RPM ratio (pull-down/input).
On to “GATGATTGTTCTCCCAGCTGATGAATTAGTTACTTCGAGTAAACAAATTTTCCTAATCTTTCTGTTCAAGCGCCATCTAC”, for which the binding signal is 1.07 RPM ratio (pull-down/input).
With “GATGATTGTTCTCCCAGCTGATGAATTCGAGTGCTCGAGTAAACAAATTTTCCTAATCTTTCTGTTCAAGCGCCATCTAC” the figure was 0.859 RPM ratio (pull-down/input); with “GATGATTGTTCTCCCAGCTGATGAATTCTCGCAGTCGAGTAAACAAATTTTCCTAATCTTTCTGTTCAAGCGCCATCTAC”, 0.829 RPM ratio (pull-down/input).
With “GATGATTGTTCTCCCAGCTGATGAATTTAGGCTTTCGAGTAAACAAATTTTCCTAATCTTTCTGTTCAAGCGCCATCTAC” the figure was 1.1 RPM ratio (pull-down/input).
Take “GATGATTGTTCTCCCAGCTGATGAATTAGACTAATCGAGTAAACAAATTTTCCTAATCTTTCTGTTCAAGCGCCATCTAC”: the binding signal is 1.08 RPM ratio (pull-down/input).
The result for “GATGATTGTTCTCCCAGCTGATGAATTCTCCAAGTCGAGTAAACAAATTTTCCTAATCTTTCTGTTCAAGCGCCATCTAC” reads 0.773 RPM ratio (pull-down/input).
With “GATGATTGTTCTCCCAGCTGATGAATTTTTAGTATCGAGTAAACAAATTTTCCTAATCTTTCTGTTCAAGCGCCATCTAC” the figure was 1.02 RPM ratio (pull-down/input).
With “GATGATTGTTCTCCCAGCTGATGAATTGCGCCCTTCGAGTAAACAAATTTTCCTAATCTTTCTGTTCAAGCGCCATCTAC” the figure was 1.03 RPM ratio (pull-down/input); with “GATGATTGTTCTCCCAGCTGATGAATTATATCAATCGAGTAAACAAATTTTCCTAATCTTTCTGTTCAAGCGCCATCTAC”, 1.16 RPM ratio (pull-down/input); with “GATGATTGTTCTCCCAGCTGATGAATTTGCGGTATCGAGTAAACAAATTTTCCTAATCTTTCTGTTCAAGCGCCATCTAC”, 1 RPM ratio (pull-down/input).
On to “GATGATTGTTCTCCCAGCTGATGAATTCGTAAAATCGAGTAAACAAATTTTCCTAATCTTTCTGTTCAAGCGCCATCTAC”, for which the binding signal was 1.04 RPM ratio (pull-down/input).
For the sequence “GATGATTGTTCTCCCAGCTGATGAATTCACAGACTCGAGTAAACAAATTTTCCTAATCTTTCTGTTCAAGCGCCATCTAC”, the binding signal is 0.819 RPM ratio (pull-down/input).
With “GATGATTGTTCTCCCAGCTGATGAATTTCGCGTGTCGAGTAAACAAATTTTCCTAATCTTTCTGTTCAAGCGCCATCTAC” the figure was 0.956 RPM ratio (pull-down/input).
The result for “GATGATTGTTCTCCCAGCTGATGAATTTTAGCCCTCGAGTAAACAAATTTTCCTAATCTTTCTGTTCAAGCGCCATCTAC” reads 0.826 RPM ratio (pull-down/input); that for “GATGATTGTTCTCCCAGCTGATGAATTAGTCAGATCGAGTAAACAAATTTTCCTAATCTTTCTGTTCAAGCGCCATCTAC”, 0.974 RPM ratio (pull-down/input).
With “GATGATTGTTCTCCCAGCTGATGAATTTCATTGTTCGAGTAAACAAATTTTCCTAATCTTTCTGTTCAAGCGCCATCTAC” the figure was 1 RPM ratio (pull-down/input).
